{
  "source": "paper PMC7819943",
  "about": "“Rice protein-binding microarrays: a tool to detect cis-acting elements near promoter regions in rice”",
  "note": "Some of the results follow.",
  "data": [
    {"target": "T1, OsWOX13 (Oryza sativa, UniProt Q5QMM3 1-267)", "T1 sequence": "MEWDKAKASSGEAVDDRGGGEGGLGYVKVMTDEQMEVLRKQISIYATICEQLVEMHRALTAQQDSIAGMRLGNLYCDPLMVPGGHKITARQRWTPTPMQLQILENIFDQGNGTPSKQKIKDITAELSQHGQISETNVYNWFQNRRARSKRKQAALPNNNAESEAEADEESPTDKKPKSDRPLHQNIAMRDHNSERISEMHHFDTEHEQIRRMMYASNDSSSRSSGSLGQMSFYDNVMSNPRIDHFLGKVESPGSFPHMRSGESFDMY", "assay": "protein-binding microarray (RPBM); PBS, 2% BSA, 51.3 ng/ul salmon testes DNA, 50 uM zinc acetate, 200 nM TF, 25 C, 1 h; high values mean tight binding", "details": "protein: recombinant; tags: N-terminal polyhistidine and DsRed monomer fusion (pET32a); label: CyDye5-dUTP incorporated in the synthesized complementary strand; 3' TTTTT single-stranded linker to array surface; dsDNA, one strand shown", "summary_of_the_method": "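The binding signal is fluorescence intensity per feature, in arbitrary units, read on an Axon 4000B scanner. Polyhistidine- and DsRed-tagged transcription factors (N-terminal fusions) from E. coli BL21-CodonPlus were purified on Ni–NTA and applied at 200 nM for 1 h at 25 °C to a double-stranded, BSA-blocked custom Agilent array in buffer with 50 µM zinc acetate.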", "values": [
      {"sequence": "AATGATTTCAGTGATGATAATATGTTGGGTTCTGGAAGCTCGGAGTCACCTAGTGCAG", "binding signal": "15800 fluorescence intensity (a.u.)"},
      {"sequence": "TTGATTAAGTATGAATGATCCCTTTAGCGAATTCGGTAGCCGGAGTCACCTAGTGCAG", "binding signal": "13500 fluorescence intensity (a.u.)"},
      {"sequence": "GTTGAGTGGATTGAATGGAGGGAGTGTTTCTGTTGTTGCACGGAGTCACCTAGTGCAG", "binding signal": "24700 fluorescence intensity (a.u.)"},
      {"sequence": "TCTTGTCATCATTTGATTATTTCCTAAGCCCTGTTTCCTTCGGAGTCACCTAGTGCAG", "binding signal": "6570 fluorescence intensity (a.u.)"},
      {"sequence": "TCTGATTTCTTCTTCAGTTCTGCTTCTTCCCATCCAAAGCCGGAGTCACCTAGTGCAG", "binding signal": "9790 fluorescence intensity (a.u.)"},
      {"sequence": "ACAAATTTTATAAACCAAAATTTAAATACAAATTCTCTGACGGAGTCACCTAGTGCAG", "binding signal": "4720 fluorescence intensity (a.u.)"},
      {"sequence": "TTCAAATAATTGTCATTAAATATTATTCATTCTTAAACTTCGGAGTCACCTAGTGCAG", "binding signal": "7640 fluorescence intensity (a.u.)"},
      {"sequence": "AATATAACTATTTAAATTGCAAATAATTGGTGGACCTCACCGGAGTCACCTAGTGCAG", "binding signal": "29100 fluorescence intensity (a.u.)"},
      {"sequence": "CCACAATTCCCATTTCACACATTTCATTTGGGCCTCTAAACGGAGTCACCTAGTGCAG", "binding signal": "47600 fluorescence intensity (a.u.)"},
      {"sequence": "GTTTGCTAATTATAATATCACATAAATGCTATGTCGAAGGCGGAGTCACCTAGTGCAG", "binding signal": "22000 fluorescence intensity (a.u.)"},
      {"sequence": "TGGCCAATTAATGTTTGTTAGACGGCATGTACGGATCAAACGGAGTCACCTAGTGCAG", "binding signal": "15000 fluorescence intensity (a.u.)"},
      {"sequence": "TAGTTAACAGATTCATCATCCAACCTTTTGCTTAATCATACGGAGTCACCTAGTGCAG", "binding signal": "8300 fluorescence intensity (a.u.)"},
      {"sequence": "AGACATTTTGCCAGATAATTGGCATGCATGCAGCCTACCACGGAGTCACCTAGTGCAG", "binding signal": "7880 fluorescence intensity (a.u.)"},
      {"sequence": "AAAGATTGAGAAATGGAAGACCTAGCTCAGGATTTGATGACGGAGTCACCTAGTGCAG", "binding signal": "20500 fluorescence intensity (a.u.)"},
      {"sequence": "GTATAAATTAGATGTTATCCATCGTCATAGCCATCGAAATCGGAGTCACCTAGTGCAG", "binding signal": "13600 fluorescence intensity (a.u.)"},
      {"sequence": "GATAAAAGTTATTGATATTAATTTATAGTTGACATACACTCGGAGTCACCTAGTGCAG", "binding signal": "15800 fluorescence intensity (a.u.)"},
      {"sequence": "CTACATACTATTTAAATTTAAATTATCATAAACCATATTACGGAGTCACCTAGTGCAG", "binding signal": "11300 fluorescence intensity (a.u.)"},
      {"sequence": "TGGTGACAGAAGTAATTGTAGCTGAGTTCCACAAAGAAAACGGAGTCACCTAGTGCAG", "binding signal": "7090 fluorescence intensity (a.u.)"},
      {"sequence": "TTTAATTGCTGGACAATAACTTTTAAACTATATGTTCCTACGGAGTCACCTAGTGCAG", "binding signal": "36300 fluorescence intensity (a.u.)"},
      {"sequence": "GCGATTGCAATTAGCGCCGAGCCCTCTTTGTTTAGGTTTACGGAGTCACCTAGTGCAG", "binding signal": "6570 fluorescence intensity (a.u.)"},
      {"sequence": "GAGAATTAATCCTAAATTTGCAATAAAGAAATTAGGGTAACGGAGTCACCTAGTGCAG", "binding signal": "8720 fluorescence intensity (a.u.)"},
      {"sequence": "CTGACAGTGATGAGCGTTTCCCTGTGATCCTTTCCTTACGCGGAGTCACCTAGTGCAG", "binding signal": "10500 fluorescence intensity (a.u.)"},
      {"sequence": "ATGATGAGATTGAGGTTGATATAGATAGCTTTGATGTTGACGGAGTCACCTAGTGCAG", "binding signal": "23200 fluorescence intensity (a.u.)"},
      {"sequence": "AGAAACAGTCATCACAGAATGACAGAAACATAAAGAGACACGGAGTCACCTAGTGCAG", "binding signal": "5110 fluorescence intensity (a.u.)"},
      {"sequence": "GTTTTACAAATTTTGATAAGTTAACAAACTAAACACAACCCGGAGTCACCTAGTGCAG", "binding signal": "5010 fluorescence intensity (a.u.)"},
      {"sequence": "CTCTTAGAAATTAGATTACGACTTTACGAGTATAAAGCTCCGGAGTCACCTAGTGCAG", "binding signal": "4710 fluorescence intensity (a.u.)"},
      {"sequence": "GCTCCTGATTTGCGTCGAGGTGCACAGGAAGAGCCACACACGGAGTCACCTAGTGCAG", "binding signal": "7330 fluorescence intensity (a.u.)"},
      {"sequence": "CGGTTTTGATTAGGTAAGGGACGCTGAATATCTGATTTTGCGGAGTCACCTAGTGCAG", "binding signal": "18200 fluorescence intensity (a.u.)"},
      {"sequence": "ACATGATGAGCACTGCACTGGAACTGAATGCATCATATCACGGAGTCACCTAGTGCAG", "binding signal": "5790 fluorescence intensity (a.u.)"},
      {"sequence": "GTCCATTAGCGTGTGATTAATTAAGTATTAGCTAATATTTCGGAGTCACCTAGTGCAG", "binding signal": "11200 fluorescence intensity (a.u.)"},
      {"sequence": "TACGTATACTTTTGTCAATTATCACAAAACTACAGATTTACGGAGTCACCTAGTGCAG", "binding signal": "3660 fluorescence intensity (a.u.)"},
      {"sequence": "TTGAATGGAATTGGATTTCGAAACCATTTTGAGTGGTGTACGGAGTCACCTAGTGCAG", "binding signal": "8180 fluorescence intensity (a.u.)"},
      {"sequence": "TGGAAAATTGGAAATCTCCATGCGGTTCCGTGTCGTCCAACGGAGTCACCTAGTGCAG", "binding signal": "8920 fluorescence intensity (a.u.)"},
      {"sequence": "ATCCATGATTAACAGTTGATTACTGTAGCAAATCATGGATCGGAGTCACCTAGTGCAG", "binding signal": "34400 fluorescence intensity (a.u.)"},
      {"sequence": "TTCTGCTAATTGTTTGATTTTGTAATATCAGTTGATCTTCCGGAGTCACCTAGTGCAG", "binding signal": "27300 fluorescence intensity (a.u.)"},
      {"sequence": "CATTATTGCCCTTGACAGTTTTCTTATTTACCTGCCATACCGGAGTCACCTAGTGCAG", "binding signal": "7640 fluorescence intensity (a.u.)"},
      {"sequence": "CTATGATTTTACAATTTAAAATTATATTATATAAAGTCAGCGGAGTCACCTAGTGCAG", "binding signal": "46800 fluorescence intensity (a.u.)"},
      {"sequence": "ATGAAATTGGGGAGGAATTGAAGTTGAAGGACTCCATGTACGGAGTCACCTAGTGCAG", "binding signal": "8920 fluorescence intensity (a.u.)"},
      {"sequence": "GGAGGGATTGGAAATTTAGAGGGATGAGACTATTAAGAGTCGGAGTCACCTAGTGCAG", "binding signal": "6190 fluorescence intensity (a.u.)"},
      {"sequence": "TGACTTGATTGAGTAGCTGCTATGCTAGGCCGTGTAATGCCGGAGTCACCTAGTGCAG", "binding signal": "46700 fluorescence intensity (a.u.)"},
      {"sequence": "CTACTTAACTGAACAAGTGAACAATCCACTTATCTTATCACGGAGTCACCTAGTGCAG", "binding signal": "8000 fluorescence intensity (a.u.)"},
      {"sequence": "ACTAAATCACAAAACTTAAATGTTTATAACTCAAACATAACGGAGTCACCTAGTGCAG", "binding signal": "3940 fluorescence intensity (a.u.)"},
      {"sequence": "CTACTAATTAGTAGTGCTGTGCATAAGCTCAGACTCAGGGCGGAGTCACCTAGTGCAG", "binding signal": "34800 fluorescence intensity (a.u.)"},
      {"sequence": "CATATAATTAAACAATTCCATTCCAAGTATATATATGTTACGGAGTCACCTAGTGCAG", "binding signal": "3200 fluorescence intensity (a.u.)"},
      {"sequence": "AGAAAGTAATTAGAAAGTGGCATGTTGTTTCAATGTCATCCGGAGTCACCTAGTGCAG", "binding signal": "8070 fluorescence intensity (a.u.)"},
      {"sequence": "AGACTCCACTGATTATCAGCCTCCTACCCCTACCTGTCAACGGAGTCACCTAGTGCAG", "binding signal": "7010 fluorescence intensity (a.u.)"},
      {"sequence": "ACCTAATTGGTCACTAACTGCTAATCTTTCATCCACTAACCGGAGTCACCTAGTGCAG", "binding signal": "47200 fluorescence intensity (a.u.)"},
      {"sequence": "AACTAAAACACAGAAATTGATAGTCCAGCAAAACTAGCCCCGGAGTCACCTAGTGCAG", "binding signal": "5180 fluorescence intensity (a.u.)"},
      {"sequence": "CTACTAATTAATCATCCTCGATCGATCGATCTCGGTCGTGCGGAGTCACCTAGTGCAG", "binding signal": "34400 fluorescence intensity (a.u.)"},
      {"sequence": "ATAGCTAATAATCAATTAATTACGCTCTAATATACCGCTCCGGAGTCACCTAGTGCAG", "binding signal": "42300 fluorescence intensity (a.u.)"},
      {"sequence": "CTTTACAAATTTAAATCTATGATTACGTAGATAACATTTGCGGAGTCACCTAGTGCAG", "binding signal": "25000 fluorescence intensity (a.u.)"},
      {"sequence": "TGATAAACTGACGTCATGTGATTTATGGTGCAGTGATTTGCGGAGTCACCTAGTGCAG", "binding signal": "20600 fluorescence intensity (a.u.)"},
      {"sequence": "TTGCTTGATTAGATGCAGAAAGAAGCGAGGTTTATTAAACCGGAGTCACCTAGTGCAG", "binding signal": "24900 fluorescence intensity (a.u.)"},
      {"sequence": "CTAAATTATTATTATTTTAAATCCTATACTCACAAGATTTCGGAGTCACCTAGTGCAG", "binding signal": "8970 fluorescence intensity (a.u.)"}
    ]}
  ]
}
